Measurements as given in the supplement of paper PMC10126150.
Sequences with one replicate were seen in a single cluster, so their values are uncertain.

Test system: ATP
Experiment: switch fluorescence ratio, 500 uM ATP over buffer (Cy3 cluster intensity, sum of 5 cycles each) (fold (ratio)); higher = stronger signal-on switching upon ATP binding; sequences stand for … in TCGTCGGCAGCGTCAGATGTGTATAAGAGACAGTTTTTTTTTTTTTTTTTTTTTTTTT…TC
Conditions: aptamer strand: ATP DNA aptamer (quencher-CACCTGGGGGAGTATTGCGGAGGAAGG + anchor), 100 nM annealed; ATP concentration: 500 uM; one replicate
Method in brief: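 Switching-strand clusters labelled with Cy3 on a modified Illumina MiSeq flow-cell were annealed to 100 nM quencher-labelled ATP aptamer, imaged in selection buffer, and re-imaged after 15 min with 500 uM ATP at 22 °C. This was done over five cycles with NaOH stripping and re-annealing in between. The fluorescence ratio is summed target-cycle over summed buffer-cycle Cy3 intensity per cluster, averaged per switch-domain sequence, excluding clusters outside 100-1000 RFU.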
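Also: ATP exposure 15 min at 22 °C before imaging.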

Row | Sequence | switch fluorescence ratio
1 | GGCCATAGCA | 1.05
2 | AGTTTTTTCA | 0.972
3 | CATAGCGTCT | 0.935
4 | TTCCCCATAG | 1.1
5 | CCGCAGAGGG | 1.78
6 | CAGAGTCCAT | 0.986
7 | TGTGGCCGTG | 0.976
8 | TGCGTATCGG | 0.97
9 | CCACAAGGG | 1.16
10 | CTACCGGT | 1.01
11 | CATGGGTCGA | 1
12 | ATGGGGCTGC | 1.04
13 | CAACTGGTGT | 1.13
14 | GGGTCCCGTG | 1.08
15 | GATGGGCAGT | 0.979
16 | TTACGAGTG | 1.02
17 | CAGGACGGAT | 1
18 | CACAGGGGTT | 1.69
19 | TCGGCAGGTG | 2.52
20 | TAGACCATTC | 1.01
21 | TTTTGTCTTC | 1.02
22 | TGAGTCCAA | 1.02
23 | TTCGTTGGAG | 0.947

Row | Sequence | switch fluorescence ratio
24 | CGGTGCAATT | 1.07
25 | GAAATAACTA | 1
26 | GTCGGTCGGG | 0.937
27 | CTACGCGTCT | 1.07
28 | TTACTTATGG | 1.02
29 | CCAGAAGAGT | 0.974
30 | TAGTATTTGT | 0.996
31 | ATTTATCCGT | 1.03
32 | TTTGTCGAGT | 1.01
33 | ATGTTTCTCG | 1.03
34 | ACGGTTCATT | 1.05
35 | CTACATTTTG | 1.03
36 | AGTGGCCATG | 0.982
37 | GATTTTCTCG | 0.979
38 | CTTTTTAAAA | 0.956
39 | GGGGAGTT | 0.986
40 | CTCTCACGCG | 0.939
41 | AATCGGTAAA | 1.01
42 | TATTGGAAGA | 1
43 | ATGTGACGTC | 1.01
44 | GTGCCACCTA | 1.01
45 | TCCCCTGTGG | 0.992
46 | TTAGCACGAG | 1

Row | Sequence | switch fluorescence ratio
47 | AACTCTGTCG | 0.987
48 | ATTTTCGATT | 1.02
49 | GCTTGGATTA | 0.991
50 | AGAGCAGTGG | 1.05
51 | GCCGGGAAGA | 1.01
52 | TGGATAAATA | 1
53 | AGGGACTCA | 1.03
54 | TAGGAACTAT | 1.01
55 | TTCTTCAGAC | 1.02
56 | GGGTGTTATT | 0.992
57 | GTCTTGGAAT | 0.993
58 | AAGGATGAAG | 1.04
59 | AGCATTATTC | 1.31
60 | TAACTGAGGG | 0.987
61 | AAATACATCC | 1.02
62 | GGCGTCCGAT | 1.04
63 | ATGTATACCT | 1.19
64 | TGTGTTGCCG | 1.05
65 | AGCTAGTTAG | 1.04
66 | CGAGGGAATA | 3.67
67 | CAATAAGGGA | 1.03
68 | CCAAGTAGT | 1
69 | TTTTATTCCA | 0.965

Row | Sequence | switch fluorescence ratio
70 | TAAGCTCTTG | 0.97
71 | CGACCGCGCT | 1.28
72 | AACGGGTTCG | 1
73 | CCACGGGGCT | 1.07
74 | GGCTTTTGCA | 1.02
75 | TCAATACGAA | 1.26
76 | CCATAGTAGG | 1.03
77 | TTAATTTTGA | 0.996
78 | GTGATTAGTT | 1.04
79 | TGGTGTTGTG | 0.991
80 | AAAGGTCACG | 1.08
81 | CAGAGTGGCC | 1
82 | AGCACCCGTC | 1.07
83 | AATACGGCT | 0.991
84 | CGAGTGGGTC | 1.05
85 | CCCTTGGCTA | 1.06
86 | GAACGTTTAC | 1.79
87 | GTGCTATTTA | 1.01
88 | AGACGCTGG | 0.924
89 | GTGGTGAATT | 1.01
90 | AGAGATGGGT | 1.02
91 | GGATGACTGT | 0.984
92 | CACATTCGCG | 1.02

Row | Sequence | switch fluorescence ratio
93 | ACCGGTAAGA | 1.03
94 | CCGTTGCCGG | 0.943
95 | TGTTGCGACT | 1.06
96 | CAAACTTCCA | 1.18
97 | TGGGTAGATG | 1.01
98 | AAGAATAGGG | 0.979
99 | CTCGTGAAGG | 1
100 | ATCCGAG | 1.08
101 | GTTTACTATT | 0.994
102 | ACGGTTCAGT | 0.996
103 | TGCCCATCAC | 1.03
104 | GTTGTTGTAT | 1.01
105 | AAAATGTACA | 1.04
106 | CGCCTCCTCT | 1.2
107 | TTATGCTTGT | 1.04
108 | TAAATGTCT | 1.03
109 | TAGAACCCGC | 1.05
110 | GGCGTAGTCC | 0.972
111 | CATACGCAGT | 3.52
112 | CACGATGTTA | 0.97
113 | AATTACAGGA | 1.02
114 | CATTGGCATG | 0.98
115 | CCGTCCACTA | 1.39

Row | Sequence | switch fluorescence ratio
116 | CGAGGGCAAG | 1.33
117 | GCATCGCATG | 1.07
118 | TCGATTTACG | 0.924
119 | ATAGATTAGC | 1.02
120 | GCAAGCTAAA | 1.18
121 | AAACGGAAGA | 1.04
122 | GAGAGGCGCT | 0.945
123 | TCGGTGCGTA | 1.04
124 | TCAATAAGAC | 1.04
125 | TTTTCAGGGC | 1.04
126 | AACCGTTACT | 1.21
127 | TTGTCGGCTA | 0.971
128 | GGAAAGGCGA | 1.03
129 | TGGCTTGACT | 0.981
130 | TTTCGAGGT | 0.973
131 | ATGGATGTGT | 1.05
132 | CAAAACTTTA | 0.975
133 | ACGTAGTTAT | 1.02
134 | GCCCGTTATT | 0.944
135 | GGTACAGTGG | 1
136 | CAGTTAAT | 0.988
137 | GTGCTTGGCT | 1.06
138 | AGTCAGTGTG | 1.03

Row | Sequence | switch fluorescence ratio
139 | TCTAGCGGAT | 0.956
140 | GTGGCGTTGG | 1
141 | CAAAGATGTT | 0.988
142 | AACACCGGCG | 1.05
143 | TAAGCCGCAC | 1.62
144 | CAACCAAGAA | 1.1
145 | CATCTACGGC | 1.05
146 | GTTGCTTATA | 0.969
147 | TCGAACGTC | 1.16
148 | TTTGTAGGAA | 1
149 | GGGTATAGC | 0.993
150 | GGTGCAAAAT | 0.949
151 | TGAGGGTCTG | 1.02
152 | TATGTAGTTT | 1.03
153 | AAACCCTTAT | 1.06
154 | CGCATAAG | 1.42
155 | TAATTCTGCT | 1.03
156 | TCTTTCAATA | 2.28
157 | ATATTAGACC | 0.973
158 | CCCTGCCAAC | 4.3
